# In PubChem BioAssay (NCATS):
# Inconclusive results, whose numbers are uncertain, are shown with a selection of clear calls. For some of these results: No potency is given beside an inconclusive call; the fits are too rough. For some of these results: “Side channel” marks fits to a control or component signal instead of the main read-out. The source made the active and inactive calls. Unless noted, calls come from the whole dose curve.
# Tests used:
# [1] = target: Estrogen receptor (Homo sapiens) (UniProt P03372); assay: qHTS assay for small molecule antagonists of estrogen receptor alpha signaling (AID 588513; active = well fitted curve in the direction sought with a large enough effect in the signal ratio, with a control signal flat, not every such curve was filed as active; inconclusive = small, poorly fitted or top-dose-only effect, or effect the other way, or a change in a side signal; inactive = no such curve, though single readings can be large or run the other way; the % refers to the signal ratio; note: potency is the fitted concentration of half-maximal effect; for activity, negative = inhibition: % is set by controls: 0 for no effect and ±100 for the full control effect); conditions: ER-alpha-UAS-bla HEK293, beta-lactamase ratio, antagonist mode; activity, negative = inhibition: at 76.9 µM (top of the series) unless noted
# Sequence of UniProt P03372 (P03372 whole entry, looked up): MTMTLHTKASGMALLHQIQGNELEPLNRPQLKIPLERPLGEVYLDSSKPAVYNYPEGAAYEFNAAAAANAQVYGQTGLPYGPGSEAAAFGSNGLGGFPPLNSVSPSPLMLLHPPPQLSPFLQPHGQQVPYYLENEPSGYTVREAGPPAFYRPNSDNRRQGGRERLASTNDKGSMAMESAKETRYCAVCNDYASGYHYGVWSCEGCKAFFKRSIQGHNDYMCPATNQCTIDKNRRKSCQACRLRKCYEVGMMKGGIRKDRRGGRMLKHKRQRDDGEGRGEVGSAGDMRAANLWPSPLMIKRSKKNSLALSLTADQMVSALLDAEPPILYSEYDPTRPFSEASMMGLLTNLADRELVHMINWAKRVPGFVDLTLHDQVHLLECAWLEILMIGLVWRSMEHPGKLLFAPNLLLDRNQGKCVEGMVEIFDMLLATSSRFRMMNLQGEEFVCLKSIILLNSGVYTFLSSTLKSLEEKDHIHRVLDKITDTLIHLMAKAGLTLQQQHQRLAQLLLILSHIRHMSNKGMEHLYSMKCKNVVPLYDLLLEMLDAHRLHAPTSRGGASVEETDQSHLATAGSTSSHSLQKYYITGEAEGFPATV
# In short: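 ER-alpha-UAS-bla GripTite HEK 293 cells in 2% charcoal/dextran-treated FBS medium; compounds titrated (1:2, duplicate), then stimulated with 0.5 nM 17-beta-estradiol for 18 h at 37C. CCF4 beta-lactamase fluorescence; Hill-fit IC50 and efficacy.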
# [2] = target: Peroxisome proliferator-activated receptor gamma (Homo sapiens) (UniProt P37231); assay: qHTS assay for small molecule antagonists of peroxisome proliferator-activated receptor gamma signaling (AID 588537; active = well fitted inhibition curve with a large enough effect in the signal ratio, with a control signal flat, not every such curve was filed as active; inconclusive = small, poorly fitted or top-dose-only effect, or effect the other way, or a change in a side signal; the % refers to the signal ratio;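 note: reporter cells co-stimulated with 50 nM rosiglitazone agonist during compound treatment; % of control where 0% means no effect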); conditions: HEK293 PPARg-UAS-bla, beta-lactamase ratio, antagonist mode; activity, negative = inhibition: at 76.8 µM (top of the series)
# In short: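 Compounds are tested as concentration series for inhibition of rosiglitazone-driven (50 nM) reporter expression in GeneBLAzer PPAR-gamma-UAS-bla HEK293 cells. After 16 h at 37 C, CCF4 substrate is added for 2 h at room temperature and blue/green fluorescence is measured.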
# [3] = target: Vitamin D3 receptor (Homo sapiens) (UniProt P11473); assay: qHTS assay for small molecule agonists of vitamin D receptor signaling (AID 588543); conditions: HEK293T VDR-UAS-bla, beta-lactamase ratio, 16 h; activation: at 76.8 µM (top of the series);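 note: 0% = DMSO basal and 100% = reference agonist control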
# In short: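 VDR-UAS-bla HEK293T cells, 2000/well, 2% charcoal-stripped FBS; compound titration 16 h at 37 C; CCF4 beta-lactamase ratio read. Normalized to 50 nM 1-alpha,25-dihydroxyvitamin D3 (100%) and DMSO; Hill fit gives EC50, efficacy.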
# [4] = target: Retinoic acid receptor RXR-alpha (Homo sapiens) (UniProt P19793); assay: qHTS assay for small molecule agonists of retinoid X receptor alpha signaling (AID 588544); conditions: HEK293T RXRa-UAS-bla, beta-lactamase reporter, 18 h; activation: at 76.7 µM (top of the series) unless noted; note: potency is the fitted concentration of half-maximal effect;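 for activation: 0% = DMSO basal wells and 100% = reference agonist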
# Sequence of UniProt P19793 (P19793 whole entry, looked up): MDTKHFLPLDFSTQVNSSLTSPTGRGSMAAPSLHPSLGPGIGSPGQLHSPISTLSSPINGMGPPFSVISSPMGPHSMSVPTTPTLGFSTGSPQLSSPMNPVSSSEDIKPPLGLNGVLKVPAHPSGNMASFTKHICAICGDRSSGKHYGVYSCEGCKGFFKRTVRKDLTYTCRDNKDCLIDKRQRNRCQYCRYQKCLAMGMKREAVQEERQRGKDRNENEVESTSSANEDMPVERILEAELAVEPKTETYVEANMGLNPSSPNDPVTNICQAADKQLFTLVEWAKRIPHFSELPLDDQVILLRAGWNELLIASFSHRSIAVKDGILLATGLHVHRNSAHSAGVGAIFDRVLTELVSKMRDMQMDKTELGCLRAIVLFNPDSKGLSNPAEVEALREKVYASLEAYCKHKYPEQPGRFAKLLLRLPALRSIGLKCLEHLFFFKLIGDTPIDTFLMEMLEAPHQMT
# [5] = qHTS assay for small molecule agonists of the antioxidant response element (ARE) signaling pathway (AID 651741; active = well fitted activation curve with a large enough effect in the signal ratio; inconclusive = small, poorly fitted or top-dose-only effect, or effect the other way, or a change in a side signal; the % refers to the signal ratio; note: potency is the fitted concentration of half-maximal effect; for activation: % of control where 0% means no effect); conditions: HepG2 ARE-bla reporter, beta-lactamase FRET ratio, 16 h; activation: at 96 µM (top of the series) unless noted
# In short: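 Reporter: beta-lactamase under ARE, stably in HepG2. Exposure: 16 h, 37 C, compounds delivered in DMSO by pin tool after 5 h cell preincubation. Readout: FRET substrate fluorescence after 2 h at RT.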
# [6] = target: Retinoic acid receptor RXR-alpha (Homo sapiens) (UniProt P19793); assay: qHTS assay for small molecule antagonists of retinoid X receptor alpha signaling (AID 588546; active = well fitted inhibition curve with a large enough effect in the signal ratio, with a control signal flat, not every such curve was filed as active; inconclusive = small, poorly fitted or top-dose-only effect, or effect the other way, or a change in a side signal; inactive = no such curve, though single readings can be large or run the other way; the % refers to the signal ratio;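 note: cells stimulated with 9-cis-retinoic acid as agonist; % is set by controls: 0 for no effect and ±100 for the full control effect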); conditions: HEK293T RXRa-UAS-bla, beta-lactamase ratio, antagonist mode
# In short: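 Beta-lactamase reporter inhibition, read as CCF4 fluorescence ratio (ex 405, em 460/530 nm) after 2 h at RT. HEK293T UAS-bla cells, 2500/well, were stimulated with 9-cis-RA at 500 or 100 nM final alongside test compound for 18 h at 37 C.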
# [7] = target: Thyroid hormone receptor beta (Homo sapiens) (UniProt P10828); assay: qHTS assay for small molecule antagonists of thyroid hormone receptor beta signaling (AID 588547; active = well fitted inhibition curve with a large enough effect in the signal ratio, with a control signal flat, not every such curve was filed as active; inconclusive = small, poorly fitted or top-dose-only effect, or effect the other way, or a change in a side signal; the % refers to the signal ratio; note: potency is the fitted concentration of half-maximal effect); conditions: TR-UAS-bla HEK293, beta-lactamase ratio, antagonist mode, 18 h
# Sequence of UniProt P10828 (P10828 whole entry, looked up): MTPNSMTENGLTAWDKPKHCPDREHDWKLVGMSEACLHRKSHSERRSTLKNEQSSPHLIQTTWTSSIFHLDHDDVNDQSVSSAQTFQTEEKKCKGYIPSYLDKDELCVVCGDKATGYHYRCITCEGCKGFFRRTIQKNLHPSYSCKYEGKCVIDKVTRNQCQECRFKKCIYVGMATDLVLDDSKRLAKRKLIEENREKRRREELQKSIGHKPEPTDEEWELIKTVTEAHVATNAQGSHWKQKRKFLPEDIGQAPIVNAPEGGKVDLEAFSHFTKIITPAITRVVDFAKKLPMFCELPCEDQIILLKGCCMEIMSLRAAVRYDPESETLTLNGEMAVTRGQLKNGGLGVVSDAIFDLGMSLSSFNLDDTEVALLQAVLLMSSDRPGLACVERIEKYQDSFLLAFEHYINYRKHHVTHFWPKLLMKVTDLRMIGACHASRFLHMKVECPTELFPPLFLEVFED
# In short: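 TR-UAS-bla GripTite HEK293 cells in 2% charcoal/dextran FBS medium were preincubated 4 h at 37 C, given compound (0.59 nM to 92 uM) plus 0.4 nM T3 (final) for 18 h, then CCF4 for 2 h at RT; Hill fit gave IC50.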
# [8] = qHTS assay for small molecule agonists of the antioxidant response element (ARE) signaling pathway measured by Nrf2-dependant transcriptional activity (AID 720636; active = well fitted curve in the direction sought with a large enough effect in the repeat runs; inconclusive = weak or mixed curves; inactive = no such curve, though single readings can be large; an effect the other way counts as inactive or inconclusive; note: potency is the fitted concentration of half-maximal effect;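 for activation: HepG2 cells with an ARE-driven luciferase reporter; % of control where 0% means no effect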)
# In short: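 Attachment 6 hr at 37 C, then compound versus DMSO vehicle for 16 hr in ARE-luc HepG2 cells (1% dialyzed FBS); luminescence recorded 30 min after ONE-Glo addition at room temperature.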
# [9] = Cell Viability - LYMP1-003 - Assay at 24 hr (AID 963; active = well fitted curve in the direction sought with a large enough effect; inconclusive = small, poorly fitted or top-dose-only effect, or another doubt; inactive = no such curve, though single readings can be large; an effect the other way counts as inactive or inconclusive;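 note: plate controls were DMSO only for no effect and tetraoctylammonium bromide positive control for full effect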)
# In short: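 Cytotoxicity is scored as a concentration-dependent fall in ATP-linked luciferase signal in human lymphoblastoid LYMP1-003 cells treated 24 hr at 37 C in complete culture medium.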
# [10] = target: Voltage-gated inwardly rectifying potassium channel KCNH2 (Homo sapiens) (UniProt Q12809); assay: qHTS Assay for Small Molecule Inhibitors of the Human hERG Channel Activity (AID 588834; active = well fitted curve in the direction sought with a large enough effect; inconclusive = small, poorly fitted or top-dose-only effect, or another doubt; inactive = no such curve, though single readings can be large; an effect the other way counts as inactive or inconclusive;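 note: top concentration of the series differs between compounds; % is set by controls: 0 for no effect and ±100 for the full control effect; lower thallium flux fluorescence means stronger hERG block; nearly all actives have a fitted effect of over 50% in size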); conditions: U2OS BacMam hERG, FluxOR thallium flux fluorescence; at 92.2 µM (top of the series)
# Sequence of UniProt Q12809 (Q12809 whole entry, looked up): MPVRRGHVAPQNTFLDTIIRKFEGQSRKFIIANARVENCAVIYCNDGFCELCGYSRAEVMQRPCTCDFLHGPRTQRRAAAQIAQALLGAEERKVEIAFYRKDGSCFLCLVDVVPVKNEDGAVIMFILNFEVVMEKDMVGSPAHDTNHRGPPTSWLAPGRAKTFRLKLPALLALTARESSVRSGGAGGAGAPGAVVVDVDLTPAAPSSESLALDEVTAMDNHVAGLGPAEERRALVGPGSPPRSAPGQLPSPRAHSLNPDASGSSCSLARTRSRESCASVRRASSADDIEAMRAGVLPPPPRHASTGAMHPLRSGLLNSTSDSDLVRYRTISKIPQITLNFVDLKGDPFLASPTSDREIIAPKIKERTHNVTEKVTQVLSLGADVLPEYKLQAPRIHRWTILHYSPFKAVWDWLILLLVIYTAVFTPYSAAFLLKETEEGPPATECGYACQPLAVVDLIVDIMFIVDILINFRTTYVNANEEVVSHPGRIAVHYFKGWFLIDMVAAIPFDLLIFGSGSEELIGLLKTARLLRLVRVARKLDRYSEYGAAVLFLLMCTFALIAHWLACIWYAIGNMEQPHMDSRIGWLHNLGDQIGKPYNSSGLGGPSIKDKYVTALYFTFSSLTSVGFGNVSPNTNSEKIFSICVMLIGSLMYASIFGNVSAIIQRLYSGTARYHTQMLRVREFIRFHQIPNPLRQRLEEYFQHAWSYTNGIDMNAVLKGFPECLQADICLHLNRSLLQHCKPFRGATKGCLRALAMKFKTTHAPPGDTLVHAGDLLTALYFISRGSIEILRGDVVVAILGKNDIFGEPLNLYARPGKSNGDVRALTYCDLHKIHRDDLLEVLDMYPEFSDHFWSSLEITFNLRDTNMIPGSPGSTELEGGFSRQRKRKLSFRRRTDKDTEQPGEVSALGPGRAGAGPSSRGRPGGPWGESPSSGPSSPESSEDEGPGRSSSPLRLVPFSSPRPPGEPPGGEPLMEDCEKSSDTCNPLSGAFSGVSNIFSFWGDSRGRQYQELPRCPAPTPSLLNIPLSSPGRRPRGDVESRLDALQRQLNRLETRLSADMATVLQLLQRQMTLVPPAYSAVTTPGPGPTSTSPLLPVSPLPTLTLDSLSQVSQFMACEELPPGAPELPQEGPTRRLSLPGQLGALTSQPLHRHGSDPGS
# In short: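 Thallium serves as surrogate for K+ influx through BacMam-delivered hERG in U2OS cells. Compounds are added for about 10 minutes after dye loading; stimulation buffer then starts flux, monitored kinetically on FDSS.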
# [11] = target: Tumor necrosis factor (Homo sapiens) (UniProt P01375); assay: qHTS assay to identify small molecules that stimulate Tumor Necrosis Factor-alpha (TNF-alpha) secretion (AID 651757; active = well fitted curve in the direction sought with a large enough effect in the signal ratio; inconclusive = small, poorly fitted or top-dose-only effect, or a change in a side signal; inactive = no such curve, though single readings can be large or run the other way; the % refers to the signal ratio; note: 0% is about no effect); conditions: Human cells, HTRF 665/615 ratio; activation (TNF-alpha secretion): at 92.2 µM (top of the series)
# Sequence of UniProt P01375 (P01375 whole entry, looked up): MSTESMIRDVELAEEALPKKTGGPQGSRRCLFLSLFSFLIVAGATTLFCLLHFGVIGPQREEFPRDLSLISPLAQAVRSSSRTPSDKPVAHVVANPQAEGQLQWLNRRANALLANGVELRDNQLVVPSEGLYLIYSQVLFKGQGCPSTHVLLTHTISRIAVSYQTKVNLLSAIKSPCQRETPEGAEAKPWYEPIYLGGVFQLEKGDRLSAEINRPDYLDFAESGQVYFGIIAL
# In short: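 Human monocytic THP-1 cells are plated, treated with compound and held at 37 C for 17 hrs. Labeled anti-TNF-alpha antibody mixture is then added; after 3 hr at room temperature, TR-FRET signal reports secreted TNF-alpha.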
# [12] = qHTS assay to identify small molecules that stimulate interleukin-8 (IL-8) secretion (AID 651758; active = well fitted activation curve with a large enough effect in the signal ratio; inconclusive = small, poorly fitted or top-dose-only effect, or effect the other way, or a change in a side signal; the % refers to the signal ratio; note: potency is the fitted concentration of half-maximal effect; for activation: 0% is about no effect); conditions: HTRF ratio (665/615); activation: at 92.2 µM (top of the series)
# In short: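 Quantitative HTS in THP-1 monocytic cells at 2000 cells per well, with 16 hrs compound incubation at 37 C. IL-8 in the medium was then quantified by HTRF immunoassay, read after 1-3 hrs at room temperature.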
# [13] = target: Peroxisome proliferator-activated receptor delta (Homo sapiens) (UniProt Q03181); assay: qHTS assay for small molecule antagonists of peroxisome proliferator-activated receptor delta signaling (AID 588535; active = well fitted inhibition curve with a large enough effect in the signal ratio, with a control signal flat, not every such curve was filed as active; inconclusive = small, poorly fitted or top-dose-only effect, or effect the other way, or a change in a side signal; inactive = no such curve, though single readings can be large or run the other way; the % refers to the signal ratio; note: potency is the fitted concentration of half-maximal effect); conditions: HEK293T PPARd-UAS-bla, beta-lactamase FRET ratio, 18 h; activity change, negative = inhibition: at 76.7 µM (top of the series) unless noted
# Sequence of UniProt Q03181 (Q03181 whole entry, looked up): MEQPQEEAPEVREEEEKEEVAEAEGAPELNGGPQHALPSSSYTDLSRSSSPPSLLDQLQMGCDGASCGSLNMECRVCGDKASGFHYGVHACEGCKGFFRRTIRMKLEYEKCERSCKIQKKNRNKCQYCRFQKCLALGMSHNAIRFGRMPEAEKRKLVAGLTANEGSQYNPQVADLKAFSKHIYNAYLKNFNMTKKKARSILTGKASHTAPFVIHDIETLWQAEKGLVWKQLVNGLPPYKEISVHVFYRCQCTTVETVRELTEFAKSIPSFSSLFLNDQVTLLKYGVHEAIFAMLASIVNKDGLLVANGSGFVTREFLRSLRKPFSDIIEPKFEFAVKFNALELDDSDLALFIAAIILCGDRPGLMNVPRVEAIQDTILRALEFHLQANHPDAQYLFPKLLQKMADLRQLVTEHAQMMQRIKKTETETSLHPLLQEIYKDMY
# In short: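 Inhibition of PPAR-delta response element-driven beta-lactamase expression is measured in HEK293T cells exposed to a compound titration series for 18 hrs at 37 C. Half-maximal inhibition comes from Hill equation fitting.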
# [14] = target: Peroxisome proliferator-activated receptor gamma (Homo sapiens) (UniProt P37231); assay: qHTS assay for small molecule agonists of peroxisome proliferator-activated receptor gamma signaling (AID 588536; active = well fitted curve in the direction sought with a large enough effect in the signal ratio, with a control signal flat, not every such curve was filed as active; inconclusive = small, poorly fitted or top-dose-only effect, or effect the other way, or a change in a side signal; inactive = no such curve, though single readings can be large or run the other way; the % refers to the signal ratio;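 note: 0% = DMSO basal wells and 100% = rosiglitazone at 2 µM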); conditions: HEK293 PPARg-UAS-bla, beta-lactamase ratio, 16 h; activation: at 76.7 µM (top of the series), percent of rosiglitazone response, DMSO as zero unless noted
# In short: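 Compound treatment: 16 h, 37 C, HEK293 GeneBLAzer cells. Detection: CCF4, 2 h RT. Values: Hill-fit EC50, efficacy as % of 2 uM rosiglitazone.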
# [15] = Cell Viability - LYMP2-024 (AID 988; active = well fitted curve in the direction sought with a large enough effect; inconclusive = small, poorly fitted or top-dose-only effect, or another doubt; inactive = no such curve, though single readings can be large; an effect the other way counts as inactive or inconclusive;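 note: cells exposed to compound for 24 hr at 37 °C; plate controls were DMSO only for no effect and 92 µM tetraoctylammonium bromide for full effect; nearly all actives have a fitted effect of over 60% in size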)
# In short: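 qHTS cytotoxicity, human lymphoblastoid line, complete medium; 24 h cpd treatment, 37 C; CellTiter-Glo ATP luminescence readout; tetraoctylammonium bromide positive control; AC50 via Hill fit.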
# [16] = target: Estrogen receptor (Homo sapiens) (UniProt P03372); assay: qHTS assay for small molecule agonists of estrogen receptor alpha signaling (AID 588514); conditions: ER-alpha-UAS-bla HEK293, beta-lactamase ratio, 18 h; activation: at 76.8 µM (top of the series), percent of full estradiol response, vehicle zero;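 note: 0% = vehicle only and 100% = reference agonist; nearly all actives have a fitted effect of over 70% in size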
# In short: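 Efficacy is expressed against 20 nM 17-beta-estradiol (100%) and DMSO basal (0%); EC50 from Hill equation. Assay: beta-lactamase reporter in ER-alpha-UAS-bla HEK 293 cells, 18 h compound incubation, CCF4 detection.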
# [17] = target: Bile acid receptor (Homo sapiens) (UniProt Q96RI1); assay: qHTS assay for small molecule antagonists of farnesoid X receptor signaling (AID 588526); conditions: HEK293T FXR-UAS-bla, beta-lactamase ratio, antagonist mode; activity change, negative = inhibition: at 76.7 µM (top of the series); note: % is set by controls: 0 for no effect and ±100 for the full control effect
# In short: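 Concentration-response titrations were fitted to the Hill equation for half-maximal inhibition and maximal response, with data normalised to 50 uM chenodeoxycholic acid and DMSO control wells. Cells: FXR-UAS-bla HEK293T, dialyzed FBS.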
# [18] = target: Bile acid receptor (Homo sapiens) (UniProt Q96RI1); assay: qHTS assay for small molecule agonists of farnesoid X receptor signaling (AID 588527); conditions: HEK293T FXR-UAS-bla, beta-lactamase ratio, 16 h; activation: stronger effect = higher value;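 note: 0% = vehicle basal and 100% = reference agonist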
# In short: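 FXR-UAS-bla HEK293T, 10% dialyzed FBS; cpds up to 92 uM titration, 16 h 37 C; CCF4 dye 2 h RT; fluorescence. Normalized to chenodeoxycholic acid 100 uM (100%) and DMSO (0%); Hill fit gives EC50, efficacy.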
# [19] = target: Vitamin D3 receptor (Homo sapiens) (UniProt P11473); assay: qHTS assay for small molecule antagonists of vitamin D receptor signaling (AID 588541); conditions: HEK293T VDR-UAS-bla, beta-lactamase ratio, antagonist mode; activity change, negative = inhibition: at 76.7 µM (top of the series);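 note: receptor activated by calcitriol during compound treatment; % is set by controls: 0 for no effect and ±100 for the full control effect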
# Tags give direction and shape of the fitted curve or compound fluorescence and quenching.
structure (smiles),measurement,setting,value
Brc1ccc(Oc2ccccc2)cc1,"activity, negative = inhibition",[1],inconclusive: 1.68%
same,Potency,[2],inactive
same,Potency,[3],inactive
same,Potency,[4],inactive
same,Potency,[5],"inconclusive [activator, partial curve]"
CCC(C)(NC(=O)c1cc(Cl)c(C)c(Cl)c1)C(=O)CCl (stereo not drawn),"activity, negative = inhibition",[1],inconclusive: -34.2%
same,"activity, negative = inhibition",[2],inconclusive: -71.5%
same,Potency,[4],"inconclusive [side channel, rising, single point]"
same,max response,[6],inconclusive: -39%
same,Potency,[7],"inconclusive [side channel, falling, full curve, poor fit]"
same,Potency,[5],"inconclusive [activator, single point]"
same,Potency,[8],"inconclusive [activator, partial curve, poor fit]"
CCOC(=O)C(Cl)Cc1cc(-n2nc(C)n(C(F)F)c2=O)c(F)cc1Cl (stereo not drawn),"activity, negative = inhibition",[1],inconclusive: -7.39%
same,"activity, negative = inhibition",[2],inconclusive: -19.3%
same,Potency,[5],active: 54.5 µM
C=CC#N,Potency,[9],inactive
same,Potency,[1],"inconclusive [falling, single point]"
same,Potency,[2],inactive
same,Potency,[4],inactive
same,"activity change, negative = inhibition",[10],inactive: 11.8%
same,Potency,[11],inactive
same,activation,[12],inconclusive: -9.35%
Cc1cc(Cl)ccc1O[C@H](C)C(=O)O,"activity, negative = inhibition",[1],inconclusive: -41.8%
same,"activity change, negative = inhibition",[13],inconclusive: 55.8%
same,activation,[14],inconclusive: 16.7%
same,Potency,[5],"inconclusive [activator, partial curve, poor fit]"
Cc1ccccc1[N+](=O)[O-],Potency,[15],inactive
same,Potency,[1],inactive
same,Potency,[14],inactive
same,Potency,[2],inactive
same,activation,[5],inconclusive: 11.3%
same,Potency,[12],"inconclusive [activator, partial curve]"
CCc1ccc(C(=O)NN(C(=O)c2cc(C)cc(C)c2)C(C)(C)C)cc1,Potency,[16],inactive
same,"activity change, negative = inhibition",[17],inconclusive: -8.92%
same,activation,[18],inconclusive: 13.2%
same,Potency,[13],"inconclusive [activator, partial curve, poor fit]"
same,"activity, negative = inhibition",[2],inconclusive: 0.478%
same,"activity change, negative = inhibition",[19],inconclusive: 12.5%
same,Potency,[3],inactive
same,Potency,[4],inactive
same,max response,[6],inconclusive: -37.5%
same,Potency,[5],"inconclusive [activator, single point]"
same,Potency,[8],inactive
